These results are taken from PubChem BioAssay (NCI).

The test system of the assay is NCI-H322M lung. Briefly: growth of human tumour cells (NCI), 48 h.

Molecules are shown by their SMILES.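 Cells were grown in 96-well plates and exposed to each compound for 48 hours at five concentrations; endpoints were interpolated linearly between bracketing concentrations, or set to the highest concentration if not reached. GI50: concentration for 50% inhibition of growth. TGI: concentration producing complete growth inhibition.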 Calls of active or inactive are those of the source. Rule as the data show it: active = GI50 below about 0.43 µM; inactive = the rest. Peptide text beside a SMILES is read from it.

With `Nc1c(C(=O)c2cccc(OC[C@@H](O)CO)c2)cnn1-c1ccc(F)cc1`, the GI50 is above 25 µM and the TGI is above 25 µM. `Cc1[nH]c(=O)nc2nc3ccc(Cl)cc3c(N(CCO)CCO)c12`: the TGI was above 100 µM. The same measure, in the same setting: the figure for `Cc1cccc2c(NCCCN(C)C)c3c([N+](=O)[O-])ccc(C)c3nc12` is 1.23 µM. `CCOP(=O)(O)CC1OC(CO)C(O)C1O` (stereo unspecified) had a TGI above 100 µM. For the molecule `CCCCCCCCCCCCCCCCCCOP(=O)([O-])OCC[N+](C)(C)C`, the TGI stood at 17.4 µM. For `C[N+](C)(CCNc1ccc(NCC[N+](C)(C)Cc2ccc([N+](=O)[O-])cc2)c2c1C(=O)c1ccccc1C2=O)Cc1ccc([N+](=O)[O-])cc1`, the TGI was above 100 µM. Still for that read-out and setting: the value for `CC1=C(C(=O)CC(=O)C(=O)Nc2ccc(Cl)cc2C)Sc2ccccc2N1` was above 100 µM; that for `Clc1c2ncccc2cc2n[nH]nc12` was above 100 µM.

Consider `Cc1cc(=O)[nH]c(S(=O)(=O)NC(=S)Nc2ccc(Cl)cc2)n1`, for which the TGI is above 100 µM. Turning to `Cc1cc2cn3c4ccc(O)cc4nc(N)c3c2cc1C`, the GI50 was 0.783 µM and the TGI came out at 4.9 µM.

In the case of `O=[N+]([O-])c1nccn1COCCO`, the TGI is above 100 µM.

`COc1ccc(C(NS(=O)(=O)c2ccc(C)cc2)c2c(C(CBr)OC)c3ccccc3n2S(=O)(=O)c2ccccc2)cc1OC` (stereo unspecified): the TGI was above 100 µM.

With `S=C(Nc1ccccc1)c1ccc(CN2CCCCC2)s1`, the TGI was 97.5 µM. With `O=C(O)c1ccc(NCc2nc3cc(Cl)c(Cl)cc3[nH]2)cc1`, the GI50 is above 100 µM and the TGI is above 100 µM. `OC(CC(CC(O)(C(F)(F)F)C(F)(F)F)=NN=C(CC(O)(C(F)(F)F)C(F)(F)F)CC(O)(C(F)(F)F)C(F)(F)F)(C(F)(F)F)C(F)(F)F` showed a TGI above 10 µM. Molecule `CN(C)CCONC(=O)C12CC3CC(CC(C3)C1)C2` registered a TGI above 100 µM. The same measure, in the same setting: the value for `COC(=O)c1cnc(Cl)c([N+](=O)[O-])c1` was 28.5 µM.

As for `Nc1c(C(=O)Nc2cccc(C(F)(F)F)c2)sc2nc3c(cc12)C(O)CCC3` (stereo unspecified), the GI50 was 24.2 µM and the TGI is above 100 µM. In the case of `O=C(OCC1OC(n2cc(C(F)(F)F)c(=O)[nH]c2=O)CC1OC(=O)c1ccc([N+](=O)[O-])cc1)c1ccc([N+](=O)[O-])cc1` (stereo unspecified), the GI50 is above 100 µM and the TGI is above 100 µM. The molecule `C=C1c2nc3ccccc3n2C=C(c2ccc(C)cc2)N1c1ccccc1` gave a TGI above 100 µM.

Molecule `COC(=O)C1[C@@H](C(=O)OC)C(=O)O[C@H]1c1cc(OC)c(OC)c(OC)c1` (stereo partly specified) yielded a TGI above 100 µM. The molecule `O=C(CN1CCN(c2cccc(Cl)c2)CC1)N1CCc2c([nH]c3ccccc23)C1c1cccnc1` (stereo unspecified) registered a TGI above 100 µM. `Cc1c2c(n(C)c1C)C(=O)C1C(C2=O)C2(C)c3ccccc3C1(C)c1ccccc12` (stereo unspecified) came in with a TGI above 100 µM. As to `Cc1ccccc1NC(=O)C(=O)c1c(O)c2ccc(O)cc2oc1=O`, the TGI was above 100 µM. Consider `CCCN1C/C(=C\c2ccc(O)c(OC)c2)C(=O)/C(=C/c2ccc(O)c(OC)c2)C1`, for which the GI50 was above 100 µM and the TGI was above 100 µM. On to `CNCCCNc1nc2ccccc2c2c(=O)c3cc(F)ccc3sc12`, for which the GI50 was 1.58 µM and the TGI was found to be 2.92 µM. Take `COc1cc(/C=C2\C(=O)Nc3ccccc32)cc(OC)c1O`: the GI50 is 8.3 µM and the TGI was found to be 40.9 µM. For `O=C1CC2CC(O1)[C@H]1O[C@H]1C2` (stereo partly specified), the result was inactive. `CC1OC(n2cc(Cl)c(=O)[nH]c2=O)C=C(OC(=O)c2ccccc2)C1=O` (stereo unspecified) yielded a TGI above 100 µM. In turn, `CC(C)(C)OC(=O)NC(CSCc1ccc(C(=O)c2ccccc2)cc1)C(=O)O` (stereo unspecified) showed a TGI above 100 µM. On to `CCN=c1nc2sc3c(c2c(NC(=S)NCC)s1)CCN(N1CCc2c(sc4nc(=NCC)sc(NC(=S)NCC)c24)C1)C3`, for which the TGI is above 100 µM. Molecule `O=C(Nc1nnc(-c2ccc(Cl)cc2)o1)C(SC(=S)N1CCCCC1)c1ccccc1` (stereo unspecified) returned a TGI above 100 µM. Still for that read-out and setting: the value for `CC1OC(O[C@H]2CC[C@]3(C)[C@H]4CC=C5[C@@H]6[C@@H](C)[C@H](C)CC[C@]6(C(=O)OC6OC(CO)C(O)C(O)C6O)CC[C@@]5(C(=O)O)[C@]4(C)CC[C@H]3C2(C)C)C(O)C(O)C1O` (stereo partly specified) was above 100 µM.

On to `O=C1OCC2=C1C(c1ccc3c(c1)OCO3)c1cc3c(cc1O2)OCO3` (stereo unspecified), for which the TGI is above 100 µM. On to `O=S(O)CCCCCSSSCCCCCS(=O)O`, for which the TGI was above 100 µM. Regarding `C=[CH][Sn]([CH]=C)([S]c1cccc2cccnc12)[S]c1cccc2cccnc12`, the GI50 was 0.184 µM and the TGI stood at 0.416 µM.

Turning to `COc1ccc(/C(Cl)=C(\CN(C)C)c2ccc(OC)c(OC)c2)cc1OC`, the TGI was above 100 µM. The molecule `O=[N+]([O-])/C(C(Cl)=C(Cl)Cl)=C(/Br)SCc1ccccc1` yielded a TGI of 31.5 µM. Turning to `O=C(Cc1ccc(F)cc1)NC1=C(Cl)C(=O)c2ccccc2C1=O`, the TGI is above 75.7 µM. For `CCCCCCCCCCCC(=O)NCc1ccc(OC(=O)CCCCCCCCCCC)c(OC)c1`, the TGI was above 100 µM. In turn, `O=C1C2c3[nH]c4ccccc4c3C3CCCCC3C2C(=O)N1c1ccccc1` (stereo unspecified) returned a TGI above 100 µM. Regarding `CC(C)NC(C)C(C)c1ccccc1` (stereo unspecified), the TGI was above 100 µM. The same measure, in the same setting: the figure for `COc1cc(O)c2c(c1)OCC1(Cc3cc(OC)c(OC)cc31)C2=O` (stereo unspecified) is above 100 µM. With `Cc1cc(=O)n2nnc3c4ccccc4ccc3n12`, the GI50 was 13.5 µM and the TGI stood at 28.3 µM. In the case of `O=S(=O)(O)c1cc(S(=O)(=O)O)c2c(Nc3ccnc4ccccc34)ccc(S(=O)(=O)O)c2c1`, the TGI is above 100 µM. With `O=C1OCCC1(Cc1ccc(Cl)cc1)Cc1ccc(Cl)cc1`, the TGI was above 100 µM. `CCOc1ccc(NC(=O)/C(=C\c2ccc(C)cc2)C(C)=O)cc1` came in with a TGI above 100 µM.

Regarding `COc1cc2cnc3c(c2c(OC)c1OC)Cc1cc2c(cc1-3)OCO2`, the GI50 is 4.33 µM and the TGI turned out to be 49.2 µM. `COC1O[C@@H]2COC(C)(C)O[C@@H]2C(=O)N1Nc1ccc([N+](=O)[O-])cc1` (stereo partly specified) displayed a TGI above 100 µM. Same read-out and setting: the figure for `Cc1ccc(C2CC(c3cccc([N+](=O)[O-])c3)=Nc3ccccc3S2)cc1` (stereo unspecified) is above 100 µM; for `Cn1c(-c2ccccc2)cc(-c2cccs2)c1-c1ccsc1` it is above 100 µM. Regarding `CCCCCCCCCCCCCC(=O)NCO`, the TGI is above 100 µM.

Turning to `COc1ccc(OC)c(C#N)c1C#N` (tested in a mixture with another compound), the TGI is above 100 µM. Consider `COc1cc(C2CC(c3cccc(Nc4ccncc4)c3)=NN2c2ccccc2)cc(OC)c1OC` (stereo unspecified), for which the GI50 is 2.04 µM and the TGI was 5.4 µM.

Regarding `OCCN(CCO)c1ccc2c(-c3ccccc3)cc(N(CCO)CCO)nc2n1`, the TGI is above 100 µM.

For `COc1cccc2c1O/C(=C\c1ncc([N+](=O)[O-])n1C)C2=O`, the GI50 was 3.37 µM and the TGI is 17.4 µM. Take `Cc1ccc(C(=O)Nc2ccc(S(=O)(=O)O)c3cc(S(=O)(=O)O)cc(S(=O)(=O)O)c23)cc1N`: the TGI is above 100 µM.

For `CC(=O)OC1C[C@@H](C)C2(CC(c3ccoc3)OC2=O)C2CCC(O)C3(CO3)C12CO` (stereo partly specified), the TGI was above 100 µM.

For the molecule `COc1cc(/C=C/C(=O)c2ccccc2)cc(OC)c1OC`, the GI50 is 15.4 µM and the TGI was found to be 30.1 µM. Take `O=C1C=C(Nc2ccc(Br)cc2)c2ccccc2C1=O`: the TGI amounted to 27.4 µM. In turn, `CCCCCCCCCCCC[C@@H](O)[C@H]1CC[C@H]([C@H]2CC[C@H]([C@H](O)CC[C@H](O)CCCCCCCC3=C[C@H](C)OC3=O)O2)O1` registered a TGI of 5.48 µM. Same read-out and setting: the value for `CCCCNC(=O)c1cc(S(=O)(=O)n2cc[nH]c2=O)c(SC)cc1Cl` was above 100 µM; that for `CCC(C)C(NC(=O)C(NC(=O)C(CC(N)=O)NC(=O)CN)C(C)O)C(=O)NC(C(=O)NC(C)C(=O)NC(C(=O)NC(CCC(=O)O)C(=O)NC(CC(C)C)C(=O)NC(CC(=O)O)C(=O)NC(C(=O)NC(Cc1ccc(O)cc1)C(=O)N1CCCC1C(=O)O)C(C)O)C(C)C)C(C)C` (stereo unspecified) (H-GNTIVAVELDTYP-OH; configuration not given here) was above 50 µM; that for `N#CC(C/C=C/c1ccccc1)NNC(=O)c1c(Cl)c(Cl)c(Cl)c(Cl)c1-c1nc2ccc(C(=O)c3ccccc3)cc2[nH]1` (stereo unspecified) was above 100 µM. On to `CC(=O)N/C=C/c1cc(O)ccc1O`, for which the TGI is above 100 µM.

`CC1(C)Oc2ccccc2OC1O` (stereo unspecified): the TGI is above 100 µM. On to `COc1ccc(-c2cc(=O)c3c(O)cc(O)cc3o2)cc1OC`, for which the TGI was above 100 µM.

With `Cc1nc2cc(-c3nn(C(C)C)c4ncnc(N)c34)ccc2o1`, the GI50 is 0.0134 µM and the TGI was found to be 1.63 µM. The molecule `Cc1csc2nc(-c3ccncc3)cn12` showed a TGI above 100 µM. As to `Cn1c(-c2ccncc2)c(-c2ccc(F)cc2)c2ncccc21`, the GI50 was above 25 µM and the TGI is above 25 µM. With `CC(=O)Nc1ccc(-c2nnc(SCC(=O)Nc3ccc(Cl)cc3Cl)o2)cc1`, the TGI was above 100 µM.

Molecule `CSC1N=CNc2c1sc(=S)n2-c1ccccc1` (stereo unspecified) had a TGI above 100 µM. On the same count and under the same terms, the figure for `CCC12C=CCN3CCC4(c5cc(C6(C(=O)OC)CCCCCc7c6[nH]c6ccccc76)c(OC)cc5N(C)C4C(O)(C(=O)OC)C1OC(C)=O)C32` (stereo unspecified) is 15.9 µM. On the same count and under the same terms, the value for `Nc1nc(N)c2ncn(CCCC(c3ccccc3)P(=O)(O)O)c2n1` (stereo unspecified) was above 100 µM; that for `COC[C@@H]1[C@H]2OC(C)(C)O[C@H]2C(=O)N1C(=O)c1ccc(OC)cc1` was above 100 µM. The molecule `S=c1[nH]nc(-c2ccccc2)n1/N=C\c1ccc(-c2ccc(Cl)cc2)o1` registered a TGI above 100 µM. In turn, `NNC(=O)c1ccccc1Nc1nc(-c2cccs2)nc2ccc(Br)cc12` yielded a TGI above 100 µM. On to `COc1cc(S(=O)(=O)Nc2nc(-c3ccc(N4C(=O)/C(=C\c5cccs5)N=C4c4ccccc4)cc3)cs2)ccc1Cl`, for which the TGI is above 100 µM. `O=C(c1ccccc1)c1ccc2cccc(OC3OC(CO)C(O)C(O)C3O)c2n1` (stereo unspecified) came in with a TGI above 100 µM. Regarding `Nc1nc(Cl)c(N=Nc2ccc(Cl)cc2)c(NCC2(CO)CCC(CCc3ccccc3)C2)n1` (stereo unspecified), the TGI is 31.1 µM.

In turn, `O=[N+]([O-])c1ccc(C2CC(c3ccc(NCc4nc5ccccc5[nH]4)cc3)=NO2)cc1` (stereo unspecified) returned a TGI above 100 µM.

The molecule `CN(C)CC/C(=N\Nc1ccc(Cl)cc1)c1ccccc1` gave a TGI of 15 µM. `NCCCCCn1c2c(c3ccccc3c1=O)C(=O)c1ccccc1-2`: the GI50 is 1.55 µM and the TGI turned out to be 6.58 µM. Take `O=C(NC(Cc1ccc(I)cc1)C(=O)O)c1cccc(Br)c1` (stereo unspecified): the TGI is above 100 µM.
